# Data: PubChem BioAssay AID686970 (National Center for Advancing Translational Sciences (NCATS), 2013)
# Among all 360,000 compounds or so, about 6,000 (1.7%) were called active. This list was built around the results that the source calls inconclusive (neither active nor inactive); the mix of calls is not that of the screen. Calls follow the shape of the dose curve; as a rule, active = well fitted cell-killing curve with a large enough effect; inconclusive = small, poorly fitted or top-dose-only effect, or effect the other way; inactive = flat fitted curve, though single readings scatter. Potencies of inconclusive entries are left out as doubtful fits.
# Assay: qHTS for induction of synthetic lethality in tumor cells producing 2HG: qHTS for the HT-1080-NT fibrosarcoma cell line; also: nearly all actives have a fitted effect of over 55% in size
# Settings: HT-1080-NT fibrosarcoma viability, CellTiter-Glo ATP luminescence, 48 h; activity, negative = less viability: at 46.1 µM (top of the series)
# From the text: Unbiased genomic sequencing for 22 glioma genomes found recurrent mutation of IDH1 on chromosome 2q33, a gene encoding the cytosolic isoform of IDH1 associated with the tricarboxylic acid cycle (TCA) that catalyzes the oxidative decarboxylation of isocitrate, yielding alpha-ketoglutarate and CO2 via NADP+ to NADPH conversion. Subsequent studies confirmed the recurrent IDH mutations in up to 70% of secondary gliomas and in 10% of AML cases. In addition, the somatic mutation of cancer-associated IDH1 is a point mutation resulting in various amino-acid substituents at Arginine132 (IDH1 R132), a key residue found in the enzyme's active site that when mutated, results in the loss-of-function in metabolizing isocitrate but confers a gain-of-function to produce the oncometabolite 2-hydroxyglutarate (2HG). This in effect defines IDH1 as an oncogene and provides an extraordinary opportunity to discover chemical probes against mutant IDH1 that may translate into much needed new therapies for glioma and AML patients.
# This assay aims to perform a synthetic lethal screen for chemical probes specific for 2HG-producing tumor cells using matched paired cell lines (1) HT-1080-NT fibrosarcoma cell line that overproduces 2HG and (2) HT-1080-IDH1KD cell line which has IDH1 expression knocked-down. Desirable compounds are toxic to the NT fibrosarcoma cells but not to the IDH1KD cell line. The data in this AID corresponds to the results of the qHTS against the HT-1080-NT fibrosarcoma cell line.
# [1] Dang L, Jin S, Su SM. IDH mutations in glioma and acute myeloid leukemia. Trends of Mol Med. 2010; 16(9): 387-97.
# [2] Dang L et al. Cancer-associated IDH1 mutations produce 2-hydroxyglutarate. Nature. 2010; 465(7300):966.
# NIH Molecular Libraries Probe Production Centers Network [MLPCN]
# NIH Chemical Genomics Center [NCGC]
# Assay Submitter (PI): Lenny Dang Ph.D., Agios Pharmaceuticals
# Suspensions of trypsinized HT-1080-NT cells were dispensed into white, tissue culture-treated, solid 1536-well plates at 5uL/well (750 cells/well final concentration) in RPMI medium supplemented with 5% FBS. Plates were incubated at 37 degrees C for 2 hours, after which 23 nL of compounds or DMSO were delivered to each well using a pin tool. Plates were then incubated at 37 degrees C for an additional 48 hours. CellTiter-Glo viability reagent (Promega) was dispensed into wells (2.5uL/well) and incubated at room temperature for 10 minutes. The plates were measured on a PerkinElmer ViewLux plate reader for luminescent signal (clear filter, 1 sec exp). DMSO-treated control wells and media-only (no cells) control wells were used to normalize %Activity of identified toxic compounds; DMSO-treated wells corresponded to 0%Activity (100% viability), while media-only controls were used to normalize 100%Activity (0% viability).
# Concentration-response curves were fitted to the signals arising from the resulting luminescence. The concentration-effect curves were then classified based on curve quality (r2), response magnitude and degree of measured activity, and compounds were subsequently categorized based on their curve class.
# Potency is read from the fitted curve at half-maximal effect; tags tell the direction and shape of the fitted curve.
SMILES,Potency,"activity, negative = less viability"
CCCNC(=O)c1cc2c(c(-c3cccc(-c4cc5ccccc5o4)c3)n1)[C@@H](CCO)N(C(=O)NC(C)C)C2,"inconclusive [cytotoxic, single point]",
c1ccc2oc(-c3ccc4c(c3)CNCc3cnnn3-4)cc2c1,"inconclusive [rising, single point]",
OCC(Cl)CCl (configuration not stated),,inactive: -7.11%
C[C@@H]1O[C@@H](O[C@H]2C[C@@H](O)[C@]3(CO)[C@@H]4C(CC[C@]3(O)C2)[C@@]2(O)CC[C@H](C3COC(=O)C3)[C@@]2(C)C[C@H]4O)[C@H](O)[C@H](O)[C@H]1O (some centres not stated),active: 5.17 µM,
COc1cccc(C(=O)C2CN(C)CC2c2ccc(Cl)cc2)c1 (configuration not stated),,inactive: -2.34%
CCN(CC(=O)Nc1ccc(C#N)c(Cl)c1)CC(=O)NC(C)(C)C,"inconclusive [cytotoxic, partial curve]",
CC(Cc1ccccc1Sc1ccccc1)N(C)C (configuration not stated),,inactive: -11.4%
O=c1c2ccccc2nc(/C=C/c2ccc([N+](=O)[O-])o2)n1-c1ccc(O)cc1,"inconclusive [cytotoxic, full curve]",
COc1cc2c(cc1/C=C/[N+](=O)[O-])OCO2,active: 4.11 µM,
COc1ccc(C(=O)O/N=C(/C(N)=O)P(=O)(OC(C)C)OC(C)C)cc1,"inconclusive [cytotoxic, single point]",
Cc1ccc(/C=C2\C(=O)NC(=S)N(c3ccccc3F)C2=O)s1,"inconclusive [cytotoxic, single point]",
O=c1oc2ccccc2c(O)c1[C@H]1c2ccc(O)cc2Oc2c1c(=O)oc1ccccc21,"inconclusive [cytotoxic, single point]",
N#CC12CC(=O)N1Cc1cnnn1-c1ccccc12 (configuration not stated),"inconclusive [rising, single point]",
O=C(Cc1cccs1)N1Cc2ccccc2-n2nncc2C1,,inactive: -0.339%
COC(=O)c1cn(C(=O)c2cccc3ccccc23)c2ccccc12,active: 11.6 µM,
COc1ccc(CN2CCN(Cc3ccccc3F)CC2)cc1,,inactive: 1.96%
Cc1ccc(NC(=O)CN(C)CC(=O)Nc2cccc(F)c2)cc1[N+](=O)[O-],"inconclusive [cytotoxic, single point]",
O=P(Oc1ccc(-c2ccccc2)cc1)(N1CC1)N1CC1,,inactive: 11%
COc1ccc(-n2c(-c3ccccc3Br)nc3ccccc3c2=O)cc1,"inconclusive [cytotoxic, single point]",
CC(=O)OC[C@]12CCC(C)=C[C@H]1O[C@@H]1[C@H](O)[C@@H](OC(C)=O)[C@@]2(C)[C@]12CO2,"inconclusive [cytotoxic, full curve]",
O=C1NC(=O)C2(Cc3ccccc3N3CCOCC32)C(=O)N1c1ccccc1 (configuration not stated),"inconclusive [cytotoxic, single point]",

SMILES,Potency,"activity, negative = less viability"
CC1=C(C(=O)Nc2ccccc2)S(=O)(=O)CCO1,"inconclusive [cytotoxic, partial curve]",
Cc1cc(C(=O)Nc2ccc3c(c2)OCCO3)nn1C(C)(C)C,,inactive: 0.633%
CC(=O)O[C@@]12CO[C@@H]1C[C@H](OC1OCC(O)C(O)C1O)[C@@]1(C)C(=O)[C@H](O)C3=C(C)[C@@H](OC(=O)[C@H](O)[C@@H](NC(=O)c4ccccc4)c4ccccc4)C[C@@](O)([C@@H](OC(=O)c4ccccc4)C12)C3(C)C (some centres not stated),active: 3.26 µM,
COc1ccc(-n2nnnc2C(c2ccnc3ccccc23)N2CCC(n3c(=O)[nH]c4ccccc43)CC2)cc1 (configuration not stated),"inconclusive [cytotoxic, single point]",
CCOC(=O)[C@]12Cc3c(cc(OC)c(OC)c3OC)[C@H]1N(C1CCCCC1)C(=O)c1ccccc12,active: 3.26 µM,
CCCNC(=O)c1c(N)n(Cc2ccco2)c2nc3ccccc3nc12,active: 11.2 µM,
COc1cc(C(=O)NN=Cc2ccc(N(CCCl)CCCl)cc2)cc(OC)c1OC,"inconclusive [cytotoxic, partial curve, poor fit]",
CC[C@@H](CO)NC(=O)[C@@H]1C=C2c3cccc4c3c(cn4C)C[C@H]2N(C)C1,"inconclusive [cytotoxic, single point]",
N#Cc1cn(C2OC(CO)C(O)C2O)c2ncnc(N)c12 (configuration not stated),"inconclusive [cytotoxic, full curve, poor fit]",
CCOc1ccc(NC(=O)C2C3c4ccccc4C(c4ccccc43)C2C(=O)O)cc1 (configuration not stated),,inactive: -1.87%
CCOC(=O)C1(CCOc2ccccc2)CCN(Cc2cccc(O)c2)CC1,"inconclusive [cytotoxic, single point]",
Cn1ccc(NC(=O)CCl)n1,"inconclusive [cytotoxic, single point]",
C[C@]12CC[C@H]3[C@@H](CCC4=CC(=O)CC[C@@]43C)[C@@H]1CC[C@@H]2C(=O)CO,"inconclusive [cytotoxic, partial curve]",
COC1C(C)OC(OC2CC(C)(O)Cc3cc4c(c(O)c32)C(=O)c2c(O)cc3c(c2C4=O)OC2OC3(C)C(O)C(N(C)C)C2O)C(OC)C1(C)OC (configuration not stated),"inconclusive [cytotoxic, single point]",
COc1cc2c(c(OC)c1OC)-c1ccc(O)c(=O)cc1C(NC(C)=O)CC2 (configuration not stated),active: 0.0052 µM,
COc1ccc(OC)c(CN2CCCC(C(=O)c3sccc3C)C2)c1 (configuration not stated),,inactive: 2.7%
Cn1c(=O)cc(OCC(=O)N2CCN(C3CCCCC3)CC2)c2ccccc21,,inactive: -0.333%
CCCCCN1C(=O)c2ccccc2[C@@]2(C(=O)OCC)Cc3cc(OC)ccc3[C@@H]12,active: 14.6 µM,
COc1ccc(CNCCc2c(C)[nH]c3ccc(OC(F)(F)F)cc23)c(OC)c1,active: 20.6 µM,
CCOC(=O)[C@]12Cc3cc(Cl)ccc3[C@H]1N(C)C(=O)c1cc(OC)ccc12,"inconclusive [cytotoxic, single point]",
C=C(C)[C@@H]1C2C(=O)O[C@H]1[C@H]1OC(=O)[C@@]34OC3C[C@]2(O)[C@@]14C (some centres not stated),"inconclusive [rising, partial curve]",
